The values below come from ChEMBL document CHEMBL1201862, “PubChem BioAssay data set” (2004).

Where “and” joins values, the source holds several entries; their conditions need not be identical. Equal values may be shown once.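 Cultured in 96-well plates, cells were exposed to test compound for 48 hours across five concentrations. Abbreviation: GI50, concentration required for 50% inhibition of growth.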 Calls of active or inactive are those of the source. No stated cut-off is given here; in the data, active = GI50 up to about 1.1 µM and inactive = higher.

This assay relates to NCI-H322M. Put plainly: growth of human tumour cells (NCI), 48 h.
As for `NNC(=O)c1ccc(OCc2nc3ccccc3[nH]2)cc1`, the GI50 was inactive: > 100 µM.
`Cc1ccc(S(=O)(=O)NCc2cccc([N+](=O)[O-])c2)cc1`: the GI50 was inactive: > 100 µM.
Regarding `OC1COC(OCc2ccccc2)C(O)C1O` (stereo not drawn), the GI50 is inactive: > 100 µM.
`N=C(N)N/N=C/c1c(-c2cc([N+](=O)[O-])c(Cl)cc2Cl)nc2sccn12`: the GI50 is active: 1.08 µM and inactive: 1.57 µM.
Regarding `CCOC(=O)NC(=O)c1cn(CC(=O)NCC(=O)NCC(=O)NCCCN2CCN(CCCNC(=O)CNC(=O)CNC(=O)Cn3cc(C(=O)NC(=O)OCC)c(=O)[nH]c3=O)CC2)c(=O)[nH]c1=O`, the GI50 is inactive: > 100 µM.
For the compound `Cc1ccc(C2(c3ccc(C)c(O)c3C)CCN(C)CC2)c(C)c1O`, the GI50 was inactive: 66.7 µM.
Consider `C=CCNC(=S)N1CC(C)C(=O)Nc2ccccc21` (stereo not drawn), for which the GI50 was inactive: > 100 µM.
For the compound `O=C1OCC(O)=C1C(c1ccc(Cl)cc1)c1cc2c(cc1O)OCO2` (stereo not drawn), the GI50 was inactive: > 100 µM.
Regarding `CCOc1cc(C2SCC(=O)N2c2nc3cc4sc(N5C(=O)CSC5c5ccc(O)c(OCC)c5)nc4cc3s2)ccc1O` (stereo not drawn), the GI50 is inactive: 69 µM.
Take `CCOC1=C2N=C(C(CC)c3ccccc3F)N=C2C(=O)c2ccccc21` (stereo not drawn): the GI50 was inactive: > 100 µM.
On to `CC(=O)O[C@H]1[C@@H](N2CCOCC2)C[C@H]2[C@@H]3CC=C4C[C@@H](N5CCCC5)CC[C@]4(C)[C@H]3CC[C@@]21C`, for which the GI50 is inactive: > 100 µM.
Regarding `CCOC(=O)c1cccnc1C(OC(C)=O)OC(C)=O`, the GI50 was inactive: > 100 µM.
With `C=CCc1cc(OC)c(O)c(C(=O)/C=C/c2ccc(OC)c(OC)c2)c1`, the GI50 was inactive: 15.2 µM.
`CC1=NC(=Cc2cc(Br)cc(Br)c2)C(=O)N1n1c(-c2ccccc2)nc2ccccc2c1=O`: the GI50 was inactive: > 100 µM.
To `C[C@]12CCC3=NCCN3C1=CC[C@@H]1[C@@H]2CC[C@@]2(C)[C@H]1CC[C@]2(C)O` belongs inactive: > 100 µM.
`OC1=CN=COc2ccccc21`: the GI50 was inactive: > 100 µM.
Turning to `CCOC(=O)c1cc2cc(N(C(C)=O)C(C)=O)ccc2s1`, the GI50 was inactive: 27.3 µM.
To `[O-][S+]1CSCS1` (stereo not drawn) belongs inactive: > 100 µM; to `O=C1OC(CC(=O)c2ccc(Cl)cc2)C(Cl)=C1Cl` (stereo not drawn), inactive: > 100 µM; to `COC(=O)C1=NN2c3ccccc3CN([C@@H](C)c3ccccc3)C(=O)[C@@H]2C1`, inactive: > 100 µM.
To `O=C1OC(O)c2cc3c(cc21)OCO3` (stereo not drawn) belongs inactive: > 100 µM; to `CC(Oc1ccc(Cl)cc1Cl)C(=O)NN1C(=O)CSC1c1ccc(Cl)cc1` (stereo not drawn), inactive: 47.8 µM.
In the case of `COc1cccc(C2c3cc4c(cc3OC(Nc3ccccc3)C2C)OCO4)c1OC` (stereo not drawn), the GI50 is inactive: 21.7 µM.
In the case of `COC(=O)C1=C(C(=O)OC)C(C(=O)c2ccc(Br)cc2)N2N=C(c3ccc(Cl)cc3)C=CC12` (stereo not drawn), the GI50 is inactive: > 100 µM.
`CCCCCCC(=O)OC[n+]1ccc(-c2c(COC(=O)NC(C)C)c(COC(=O)NC(C)C)c3n2CCC3)cc1`: the GI50 was inactive: > 100 µM.
With `CC(C)C1=CC(=O)C(C)(C2=NC(C)(C)CO2)c2ccccc21` (stereo not drawn), the GI50 was inactive: > 100 µM.
As to `O=C1c2ccccc2C(=O)N1/N=C\c1ccc(Br)cc1`, the GI50 is inactive: > 10 µM.
As for `CC(C)OP(=O)(OC(C)C)C1=NN(c2ccc([N+](=O)[O-])cc2)C(P(=O)(OC(C)C)OC(C)C)=NN1c1ccc([N+](=O)[O-])cc1`, the GI50 was inactive: > 100 µM.
For `NC(=O)CN1CCN(c2nc(N3CCCC3)c3nc(Cl)c(NCc4ccccc4)nc3n2)CC1`, the GI50 is inactive: 12.4 µM.
As for `Cc1ccc(N)c(S)c1`, the GI50 was inactive: 23.8 µM.
On to `NNC(=S)N/N=C(/C(=O)Nc1cc(Cl)ccc1Cl)C1C(=O)Nc2ccccc2[S+]1[O-]` (stereo not drawn), for which the GI50 is inactive: > 100 µM.
Consider `Clc1ccc(Cc2nc3cc(Cl)ccc3o2)cc1`, for which the GI50 is inactive: 57.3 µM.
`CCCCCCCCOCC1S(=O)(=O)OCCOS1(=O)=O`: the GI50 is inactive: > 100 µM.
The value for `C[C@]12CC/C(=N\OCCN3CCCCC3)C=C1CCC1C2CC[C@@]2(C)C1CC[C@]2(C)O` (stereo partly drawn) was inactive: 11 µM.
As to `CC(C)(C)C1CCC2(CC1)CCN(CCCN1CCOCC1)CC2`, the GI50 is inactive: > 54 µM.
On to `COc1ccc2c(c1)CCc1cc(C(N)=O)c3nnnn3c1-2`, for which the GI50 is inactive: > 100 µM.
Take `CCOC(=O)c1nc2cc(C(F)(F)F)ccc2nc1Nc1ccc(OC)c(OC)c1`: the GI50 was inactive: > 100 µM.
On to `O=C(Nc1nc2ncn(CCOC(=O)c3ccccc3)c2c(=O)[nH]1)c1ccccc1`, for which the GI50 was inactive: > 57 µM.
For the compound `CCc1cccc(CC)c1Nc1nc(-c2ccccc2-c2ccccc2)cs1`, the GI50 was inactive: > 100 µM.
Regarding `CCOC(=O)c1ccc(C(=O)OCC)n1-c1cc2cc(c1)CSCc1cc(cc(-n3c(C(=O)OCC)ccc3C(=O)OCC)c1)CSC2`, the GI50 was inactive: > 10 µM.
To `Cc1ccc(S(=O)(=O)N2CC3OC(C)(C)OC3C2CO)cc1` (stereo not drawn) belongs inactive: > 100 µM; to `CSc1ccc(/C=C2\N=C(c3ccccc3)N(NC(=O)c3c(Cl)c(Cl)c(Cl)c(Cl)c3-c3nc4ccccc4[nH]3)C2=O)cc1`, inactive: 39.9 µM.
As for `N#CC1(C#N)C(=O)c2ccncc2C1=O`, the GI50 was inactive: > 100 µM.
Turning to `CCOP(=O)(/C=C\n1cc(C)c(=O)[nH]c1=O)OCC`, the GI50 was inactive: > 100 µM.
For the compound `CCN(CC)c1cccc2c1C1(O)CCC3(CC21)OCCCCO3` (stereo not drawn), the GI50 was inactive: > 100 µM.
The value for `C=C(CN(CC(=C)C(=O)c1ccccc1)C(C)(C)C)C(=O)c1ccccc1` was inactive: 34.4 µM; that for `OCCOc1ccc(-c2cc(-c3ccccn3)nc(-c3ccccn3)c2)cc1` was active: 0.0668 µM.
`COC1CCC(=C2C(=O)OC(C)(C)OC2=O)N1` (stereo not drawn): the GI50 is inactive: > 100 µM.
With `N#Cc1sc2nc3ccccc3n2c1N`, the GI50 is inactive: > 100 µM.
The value for `COc1ccc2c(c1)C(=O)CC(N)C2` (stereo not drawn) was inactive: > 100 µM; that for `Cn1c2cc(O)cc(O)c2c(=O)c2c([N+](=O)[O-])cccc21` was inactive: > 100 µM; that for `CCOC(=O)/C(C(=O)Nc1cccc(Cl)c1)=C(/N)N1CCCC1` was inactive: > 100 µM.
As to `COc1ccc(C(=O)C(Br)C(Br)C(=O)O)cc1` (stereo not drawn), the GI50 was inactive: 34 µM.
The value for `Nc1nc(NNc2ccccc2F)cc(=O)[nH]1` was inactive: > 100 µM; that for `C=Cc1ccccc1C1(O)C=CC(OC)(OC)C=C1` was inactive: 11.5 µM.
The value for `CN(C)CCNC(=O)c1cccc2ccc(-c3ccc(F)cc3)nc12` was inactive: 5 µM.
Turning to `CCOP(=O)(C/C(=N/NC(C)(C)C)C(=O)Nc1nc2ccc(C)cc2s1)OCC`, the GI50 was inactive: > 100 µM.
Consider `O/N=C\c1c2c(cc3c1CCC3)CCC2`, for which the GI50 is inactive: > 100 µM.
As to `CC(=O)N1c2ccccc2C(C)C1c1[nH]c2ccccc2c1C` (stereo not drawn), the GI50 is inactive: 23.2 µM.
On to `COC(=O)C1CSC(c2csc(CCN)n2)=N1` (stereo not drawn), for which the GI50 was inactive: > 100 µM.
As to `O=[PH]1c2ccccc2Nc2ccccc21`, the GI50 was inactive: > 100 µM.
Take `COc1cc([C@@H]2c3cc4c(cc3[C@@H](OC(=O)c3ccc(N)cc3)C3COC(=O)[C@@H]32)OCO4)cc(OC)c1O` (stereo partly drawn): the GI50 was inactive: 6.75 µM.
The value for `Cc1ccc(S(=O)(=O)c2ccc(N)cc2)cc1` was inactive: > 100 µM; that for `COc1cc(/C=N/c2ccc(Oc3ccc(Cl)cc3)c(Cl)c2)cc(OC)c1OC` was inactive: 20 µM.
Take `Cc1ccc(NC(=O)CCC(=O)C2Cc3ccccc3C2=O)cc1C` (stereo not drawn): the GI50 was inactive: > 100 µM.
As for `N=C1OC(c2ccc3c(c2)OCO3)C(NNS(=O)(=O)c2ccccc2)=C1O` (stereo not drawn), the GI50 is inactive: > 100 µM.
Turning to `C/C(CC(=O)Nc1cc(C)ccc1C)=N/N=C(N)N`, the GI50 is inactive: > 100 µM.
Take `CCOC(=O)c1cc(=O)n(C)c(=O)n1C`: the GI50 is inactive: > 100 µM.
As to `COC(=O)c1ccccc1C1CN=NC12Cc1cccc(C)c1C2=O` (stereo not drawn), the GI50 was inactive: > 100 µM.
Turning to `C=C[C@@]1(C)CC(=O)[C@]2(O)[C@@]3(C)[C@@H](OC(C)=O)CCC(C)(C)[C@@H]3[C@H](O)[C@H](OC(C)=O)[C@@]2(C)O1`, the GI50 was inactive: > 100 µM.
In the case of `Cc1cc2c(=O)cc(-c3ccc(O)cc3)oc2c(C(=O)O)c1C`, the GI50 is inactive: > 100 µM.
Take `CC1=CC(=O)/C(=C/NC(N)=S)C(=O)O1`: the GI50 is inactive: > 100 µM.
For `CC1=C(/C=C/Cl)CC(Cl)C(C)(Cl)C1` (stereo not drawn), the GI50 is inactive: > 100 µM.
For `CCN(CC)c1ccc2cc(-c3nc(O)c4ccccc4n3)c(=N)oc2c1`, the GI50 was inactive: > 100 µM.
For `Cc1ccc(S(N)(C(=O)Nc2cccc3ccccc23)[N+](=O)[O-])cc1` (stereo not drawn), the GI50 is inactive: > 100 µM.
As for `CC1=C2C3OC(=O)C(C)C3C(O)C[C@@]2(C)C(=O)CC1` (stereo partly drawn), the GI50 is inactive: > 100 µM.
`Cc1[nH]n(-c2nc3c(c(=O)[nH]2)CCC3)c(=O)c1CCO`: the GI50 is inactive: > 100 µM.
For `COc1cc([C@@H]2c3cc4c(c(O[C@@H]5O[C@H]6CO[C@@H](C)O[C@H]6[C@H](O)[C@@H]5O)c3C[C@H]3COC(=O)[C@@H]32)OCO4)cc(OC)c1O`, the GI50 is inactive: 12.6 µM.
`COc1cc2c(cc1OCCCCCOc1cc3c(cc1OC)C(=O)N1CCC[C@H]1C(=O)N3)N=C[C@@H]1CCCN1C2=O`: the GI50 was active: 0.288 µM.
For `O=C1C(c2c(O)[nH]c3ccc(F)cc23)=Nc2ccccc21`, the GI50 was inactive: > 100 µM.
With `Cc1ccc2c(O)cc(-c3cccs3)nc2n1`, the GI50 was inactive: 16.3 µM.
`CCCCCCCC/C=C(\Br)C(O)C(Br)Br` (stereo not drawn): the GI50 was inactive: 31 µM.
Turning to `COc1cccc2c1[C@H](OC)[C@]13O[C@@]1(C2=O)[C@H](O)[C@H](C)[C@@](O)(C(=O)[C@@H]1O[C@H]1C)[C@@H]3O`, the GI50 is active: 0.149 µM.
